Results: publication PMC6919601, “Identification of Plasmodium dipeptidyl aminopeptidase allosteric inhibitors by high throughput screening” (PLoS ONE, 2019)
About 230 (0.21%) of roughly 110,000 compounds showed an effect of 50% or more. Some of the results follow.

target: DPAP1 (Plasmodium falciparum, UniProt Q8IIJ9); assay: primary screen, percent inhibition; read by cleavage of a fluorogenic dipeptide substrate; higher = more effect of the substance; parameters: species or system P. falciparum D10 trophozoite lysates; single well
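Further: 30 min substrate incubation versus DMSO and 10 µM JCP410 controls.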

Chain of DPAP1 (Q8IIJ9 whole entry, looked up): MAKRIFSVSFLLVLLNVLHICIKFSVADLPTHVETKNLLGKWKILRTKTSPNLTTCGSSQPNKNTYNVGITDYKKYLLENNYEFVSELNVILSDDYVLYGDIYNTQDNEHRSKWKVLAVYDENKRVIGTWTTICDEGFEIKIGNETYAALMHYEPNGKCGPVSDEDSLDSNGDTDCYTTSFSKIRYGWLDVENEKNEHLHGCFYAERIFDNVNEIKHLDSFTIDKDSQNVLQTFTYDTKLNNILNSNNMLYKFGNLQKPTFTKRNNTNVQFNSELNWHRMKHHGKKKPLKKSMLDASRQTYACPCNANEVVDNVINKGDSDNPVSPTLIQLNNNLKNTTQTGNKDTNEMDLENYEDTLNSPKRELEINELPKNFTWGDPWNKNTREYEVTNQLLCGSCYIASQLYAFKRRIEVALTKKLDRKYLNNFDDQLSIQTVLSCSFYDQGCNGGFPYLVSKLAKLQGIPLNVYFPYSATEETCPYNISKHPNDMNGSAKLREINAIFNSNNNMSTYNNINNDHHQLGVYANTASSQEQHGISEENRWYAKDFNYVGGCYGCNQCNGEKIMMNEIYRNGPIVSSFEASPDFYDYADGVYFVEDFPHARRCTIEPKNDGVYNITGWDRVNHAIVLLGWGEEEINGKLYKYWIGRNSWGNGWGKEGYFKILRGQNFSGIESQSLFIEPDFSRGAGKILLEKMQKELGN

SMILES | % Inhibition @ 10 uM
O=C(O)CSc1nc2c(Br)c(N3CCOCC3)c(F)cc2[nH]1 | -2.18%
COc1ccc(Cc2c(Cl)nc(SC)nc2Cl)cc1 | 5.3%
C=CCc1cccc2cc(C(=O)Nc3ccc(OC)cc3)c(=O)oc12 | -0.771%
CC(NC(=O)CCN1C(=O)c2ccccc2Sc2ncccc21)c1ccccc1 (stereo not shown) | 0.436%
COC(=O)c1cc(S(=O)(=O)NCc2ccc(C)cc2)c[nH]1 | -11.9%
Cc1cc(OCC(=O)NCC2CCCO2)ccc1Cl (stereo not shown) | -1.98%
CC1Nc2nc(N)nc(O)c2N(C(=O)c2cccnc2)C1C (stereo not shown) | 4.03%
OCC/N=C/c1c(O)n(-c2c(Cl)cccc2Cl)c2ccccc12 | 0.484%
CC(C)CCn1cnc2c1c(=O)n(C)c(=O)n2C | -3.13%
COc1cc(C2C(C(=O)c3ccc4c(c3)OCCO4)=C(O)C(=O)N2Cc2ccco2)ccc1O (stereo not shown) | -10.7%
Cc1ccc(S(=O)(=O)N2CCC(CN3C(=O)c4cccc5cccc(c45)C3=O)CC2)cc1 | -3.37%
CCOC(=O)c1c(C)oc2nc(C)nc(N3CCN(C(=O)OCC)CC3)c12 | -5.57%
Cn1c(-c2ccc(Cl)cc2)cnc1NCc1ccc(C(F)(F)F)cc1 | -1.11%
COc1cccc(S(=O)(=O)Nc2ccc(C(=O)NCCc3ccccc3)cc2)c1 | -4.72%
Cn1c(=O)c2ncn(CC(=O)Nc3cccc(-c4nc5ccccc5s4)c3)c2n(C)c1=O | 9.11%
C=CCc1ccccc1OCC(O)Cn1cnc2ccccc21 (stereo not shown) | -3.39%
COc1ccc(CN2CCN(Cc3cccc(C)c3)CC2)cc1 | -6.57%
CC(=O)Nc1ccc(S(=O)(=O)NCc2ccccc2Cl)cc1 | -0.116%
COc1ccc(-c2cc(C(F)(F)F)nc(S(=O)(=O)CCC(=O)NCc3ccccc3)n2)cc1 | 1.72%
Cc1cc2cc(CNS(=O)(=O)N(C)C)ccc2n1C | -0.138%
CCC(C)NC(=O)c1ccccc1NS(=O)(=O)c1ccc(Br)cc1 (stereo not shown) | 0.214%
CCCCN(C)CCCNC(=O)c1ccc(CNS(=O)(=O)c2ccc(Br)cc2)cc1 | 0.208%
O=C(O)C(Cc1ccccc1)Nc1ncnc2c1oc1ccccc12 (stereo not shown) | 4.44%
CCOc1cccc(-c2cc(C(=O)Nc3ccc(C(N)=O)cc3)c3ccccc3n2)c1 | -18.6%
OCCC1CCCCN1CCc1ccccc1 (stereo not shown) | 1.62%
O=C(Cn1ncn2c(cc3ccccc32)c1=O)NC1CC1 | 4.84%
CCN1C(=O)N/C(=C/c2ccc(OC)c(Br)c2)C1=O | 19.8%
CN1C(c2ccccc2)=CC(c2ccccc2)n2nnnc21 (stereo not shown) | -2.36%
